According to PMC4336329 (PLoS ONE, 2015):
About 2,200 (0.71%) of roughly 310,000 compounds showed an effect of 50% or more. Effects have a minus sign here. Some of the results follow.

Molecular target: human ether-à-go-go-related gene (hERG) potassium channel (human, UniProt Q12809)
Assay: primary screen, population patch clamp on CHO cells stably expressing hERG

Sequence of human ether-à-go-go-related gene (hERG) potassium channel (Q12809 whole entry, looked up): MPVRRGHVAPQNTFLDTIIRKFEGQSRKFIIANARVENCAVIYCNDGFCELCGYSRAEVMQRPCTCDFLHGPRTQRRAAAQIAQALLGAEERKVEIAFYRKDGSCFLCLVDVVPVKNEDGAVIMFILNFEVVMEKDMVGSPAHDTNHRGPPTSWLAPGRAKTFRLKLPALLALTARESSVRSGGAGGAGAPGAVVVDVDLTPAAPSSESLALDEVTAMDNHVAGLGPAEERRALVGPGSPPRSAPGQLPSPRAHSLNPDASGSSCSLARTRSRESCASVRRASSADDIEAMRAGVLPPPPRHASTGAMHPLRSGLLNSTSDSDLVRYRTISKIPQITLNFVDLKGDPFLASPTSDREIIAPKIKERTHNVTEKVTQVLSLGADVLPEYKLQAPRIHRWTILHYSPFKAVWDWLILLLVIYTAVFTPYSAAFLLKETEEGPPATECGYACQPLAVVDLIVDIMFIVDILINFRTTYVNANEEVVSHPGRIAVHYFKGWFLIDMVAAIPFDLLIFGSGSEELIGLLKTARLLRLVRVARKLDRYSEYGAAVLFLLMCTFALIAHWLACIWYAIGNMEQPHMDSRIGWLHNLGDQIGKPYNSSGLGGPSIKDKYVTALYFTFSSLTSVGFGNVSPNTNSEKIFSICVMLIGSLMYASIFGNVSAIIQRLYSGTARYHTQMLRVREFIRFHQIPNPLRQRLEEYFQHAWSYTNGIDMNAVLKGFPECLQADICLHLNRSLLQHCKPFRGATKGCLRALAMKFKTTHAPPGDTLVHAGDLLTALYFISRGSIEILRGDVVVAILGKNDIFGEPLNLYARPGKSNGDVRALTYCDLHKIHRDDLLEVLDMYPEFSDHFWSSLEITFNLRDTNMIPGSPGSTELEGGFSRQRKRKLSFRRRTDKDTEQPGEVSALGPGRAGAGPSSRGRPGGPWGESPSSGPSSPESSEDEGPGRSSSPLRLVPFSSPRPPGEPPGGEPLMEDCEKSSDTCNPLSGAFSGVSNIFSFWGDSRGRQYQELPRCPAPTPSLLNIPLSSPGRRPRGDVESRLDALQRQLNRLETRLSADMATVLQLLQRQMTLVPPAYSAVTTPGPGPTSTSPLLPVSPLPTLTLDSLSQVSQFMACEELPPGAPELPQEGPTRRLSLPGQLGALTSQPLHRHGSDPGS

Row | SMILES | hERG current change (%, negative = inhibition) at 1uM [%]
1 | Cc1nnc(N/N=C/c2ccccc2F)n1N | 12.7
2 | CCOc1ccc(CNn2cnnc2)cc1 | 3.03
3 | COC(=O)c1sccc1NC(=O)Nc1ccc(C(C)=O)cc1 | 13.2
4 | CC(=O)c1sc(NC(=O)COc2ccccc2)nc1C | 1.38
5 | Cc1csc2nc(CNC(=O)C3CCCCC3)cn12 | 6.7
6 | O=C(NC1CC1)C1=C[C@@H](C2CC2)C[C@@H](OCc2ccc(CO)cc2)O1 | 9.99
7 | C=CCn1c(SCC(=O)N2CCN(C(=O)c3ccco3)CC2)nc2sc(CC)cc2c1=O | -85.6
8 | Cc1ccc(C(=O)Nc2ccc(S(=O)(=O)NC3=NCCCCC3)cc2)cc1S(=O)(=O)N1CCOCC1 | 18.1
9 | N#CC1=C(N)n2c(s/c(=C\c3cccs3)c2=O)=C(C#N)C1c1cccs1 (centres unmarked) | 6.45
10 | COC(=O)C1=C(C)OC(N)=C(C#N)C1c1c(C)nn(C)c1C (centres unmarked) | 8.63
11 | CCOc1ccc(C(=O)Nc2ccc(-c3cc4ccccc4oc3=O)c(C)c2)cc1[N+](=O)[O-] | 9.39
12 | COCCN1C(=O)C(O)=C(C(C)=O)C1c1ccc(OC)c(OC)c1 (centres unmarked) | 11.6
13 | Cc1ccc(NC(=O)CN(C)S(=O)(=O)c2ccc3[nH]c(=O)oc3c2)c(C)c1 | -9.83
14 | Cc1ccccc1NC(=O)CSc1nc2c(c(=O)n(C)c(=O)n2C)n1C | -0.914
15 | CN1c2ccsc2/C(=N/Nc2ccc(F)cc2)CS1(=O)=O | 16.9
16 | Cc1cccc(C(=O)NNC(=O)c2ccc(O)cc2)c1 | 0.387
17 | COc1ccc(-c2cc(C(=O)NCCCn3ccnc3)no2)cc1OC | 14
18 | Cc1cccc(OCC(=O)Nc2ccc(S(=O)(=O)Nc3cc(C)nc(C)n3)cc2)c1 | 6.43
19 | COC(=O)c1ccccc1NC(=O)N1CCN(c2ccccc2)CC1 | 16.9
20 | Cc1cccc(-c2oc3ccc(-c4ccc5c(c4)OCO5)cc3c2-c2ccc(OC3CCCCO3)cc2)c1 (centres unmarked) | 14.1
21 | COc1ccc(NC(=O)Cc2c(Sc3ccccc3)c3ccccc3n2C)cc1 | 7.55
22 | CCn1c(=O)c2c(nc3n2CCN3c2ccccc2)n(C)c1=O | 6.42

Row | SMILES | hERG current change (%, negative = inhibition) at 1uM [%]
23 | O=c1c2ccccc2c2ccccc2c(=O)n1-c1ccccc1 | 9.63
24 | CN(C)c1ccc(CN(C(=O)c2cccs2)C2CCS(=O)(=O)C2)cc1 (centres unmarked) | 11.5
25 | Cc1cccn2c(=O)c3cc(C(=O)NCc4cccnc4)c(=N)n(CC4CCCO4)c3nc12 (centres unmarked) | -78.5
26 | CCOc1ccc(/C=N/N2C(=O)C(CC(=O)Nc3ccc(F)cc3F)SC2=NC)cc1OC (centres unmarked) | -1.14
27 | NC(=O)CSc1nnc(Cc2csc(Nc3ccc(F)cc3)n2)n1Cc1ccccc1 | 11.5
28 | C=CCn1c(=O)c2ccccc2n2c(SC(C)C(N)=O)nnc12 (centres unmarked) | 9.68
29 | COc1cccc(N2CC(C(=O)Nc3nnc(SCc4cccnc4)s3)CC2=O)c1 (centres unmarked) | -0.498
30 | COc1cc(-c2noc(C)c2C#CC2(O)CCCCC2)cc(OC)c1OC | 18.9
31 | CC(=O)Nc1ccccc1Sc1ccccc1 | -10.4
32 | O=C(Cn1ncc2c3ccccc3n(Cc3ccc(F)cc3)c2c1=O)N1CCC2(CC1)OCCO2 | -8.53
33 | CCOc1ccc(CNC(=S)N/N=C/c2cccnc2)cc1 | 0.196
34 | CCCCNC(=O)c1cc2nc(-c3ccccc3)cc(C(F)(F)F)n2n1 | 0.288
35 | CCCCCCN=CC1=C(O)C(C(=O)OC)C(C)(C)CC1=O (centres unmarked) | 7.79
36 | O=C(CN(CCc1ccccc1)C(=O)CNS(=O)(=O)c1ccccc1)NCC1CCCO1 (centres unmarked) | 7.11
37 | O=C(Nc1ccccc1)c1cccc(C(F)(F)F)c1 | 10.8
38 | COc1ccc(CCN2C(=O)CCC2(C)C(=O)NCc2cccnc2)cc1OC (centres unmarked) | 17.7
39 | O=C(Cn1cccc1C(=O)c1ccccc1)NCCc1ccc(Cl)cc1 | 10.6
40 | Cc1oc(-c2ccc(Cl)cc2)nc1CS(=O)CC(=O)NC1CCCCCC1 (centres unmarked) | 14.4
41 | Cl.O=C(OCCN1CCCCC1)c1cccc(Cl)c1 | -3.25
42 | COc1ccc(NC(=O)CCS(=O)(=O)c2cccc3nonc23)cc1Cl | 14.2
43 | CCC/C(=N/NC(=O)c1ccc2c(c1)OCO2)c1cccs1 | 8.98
44 | N#CC1=C(SCc2ccccc2)NC(=O)C(C#N)C12CCCC2 (centres unmarked) | 8.21
